Data as given in article PMC4336329 (PLoS ONE, 2015).
Hit rate of the full screen: of about 310,000 compounds, about 14,000 (4.5%) showed an effect of 50% or more. Effects have a minus sign here. The list shows a part of the results.

biological target: human ether-à-go-go-related gene (hERG) potassium channel (human, UniProt Q12809); test: primary screen, population patch clamp on CHO cells stably expressing hERG
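Also: peak tail current of the secondary pulse compared with the same well before compound.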

human ether-à-go-go-related gene (hERG) potassium channel, sequence (Q12809 whole entry, looked up): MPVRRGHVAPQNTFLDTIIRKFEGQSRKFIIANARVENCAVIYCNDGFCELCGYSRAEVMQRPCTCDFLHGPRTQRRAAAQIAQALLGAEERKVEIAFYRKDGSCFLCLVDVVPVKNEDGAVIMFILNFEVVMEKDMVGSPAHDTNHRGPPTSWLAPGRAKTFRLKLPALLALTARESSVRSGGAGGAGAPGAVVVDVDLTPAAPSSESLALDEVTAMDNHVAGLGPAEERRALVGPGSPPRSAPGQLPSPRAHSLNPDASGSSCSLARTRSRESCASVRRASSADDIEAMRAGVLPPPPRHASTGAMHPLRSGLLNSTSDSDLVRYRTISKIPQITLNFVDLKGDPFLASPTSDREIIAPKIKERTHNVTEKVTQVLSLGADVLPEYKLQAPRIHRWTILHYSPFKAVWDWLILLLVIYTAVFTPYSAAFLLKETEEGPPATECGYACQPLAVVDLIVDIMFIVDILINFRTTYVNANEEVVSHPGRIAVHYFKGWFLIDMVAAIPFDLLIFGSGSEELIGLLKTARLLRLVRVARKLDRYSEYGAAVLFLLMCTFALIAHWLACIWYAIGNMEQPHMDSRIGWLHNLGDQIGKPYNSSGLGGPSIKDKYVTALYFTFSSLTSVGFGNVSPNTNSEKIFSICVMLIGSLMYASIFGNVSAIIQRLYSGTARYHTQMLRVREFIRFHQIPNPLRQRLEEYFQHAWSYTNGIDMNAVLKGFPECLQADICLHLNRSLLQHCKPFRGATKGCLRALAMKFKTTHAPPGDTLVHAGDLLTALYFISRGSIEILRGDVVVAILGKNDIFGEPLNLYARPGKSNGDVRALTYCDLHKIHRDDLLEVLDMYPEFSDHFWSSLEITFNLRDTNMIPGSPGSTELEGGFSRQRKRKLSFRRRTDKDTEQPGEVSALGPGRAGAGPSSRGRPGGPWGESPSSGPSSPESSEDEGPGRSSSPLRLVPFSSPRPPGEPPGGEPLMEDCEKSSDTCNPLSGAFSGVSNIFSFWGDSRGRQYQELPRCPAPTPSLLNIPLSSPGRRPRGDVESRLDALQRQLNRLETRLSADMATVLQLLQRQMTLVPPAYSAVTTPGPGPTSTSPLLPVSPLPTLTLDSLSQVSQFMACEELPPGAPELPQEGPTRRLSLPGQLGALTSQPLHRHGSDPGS

Compound	hERG current change (%, negative = inhibition) at 10uM
N#Cc1cnc(NN)nc1	8.95%
COC(=O)c1ccc(CSc2cc(C)c3ccccc3n2)o1	10.2%
Clc1ccc(-c2nc3ncccn3c2Cl)cc1	17.1%
O=C(c1cnn2c(C(F)F)cc(-c3ccccc3)nc12)N1CCCCC1c1cccnc1 (stereo not shown)	-37.9%
CC(NC(=S)NC1CCCCC1)c1ccccc1 (stereo not shown)	13.7%
O=C(OCC#CCSc1nnc(-c2cccc3ccccc23)o1)c1cccs1	5.12%
CN(Cc1ccccc1)C(=O)N1CCOCC1	20.6%
O=C(O)CC1SC(=O)N(Cc2ccccc2)C1=O (stereo not shown)	21%
COc1ccc(S(=O)(=O)N2CCC(C(=O)N3CCCCC3)CC2)cc1OC	-0.887%
COc1ccc(-c2cn(-c3ccccc3)c3[n+]2CCS3)cc1	-38%
CCN(CC)S(=O)(=O)c1ccc(NC2CCCc3ccccc32)nc1 (stereo not shown)	10.6%
COCCOC(=O)C1=C(N)OC(C)=C(C(=O)OC)C12C(=O)Nc1ccccc12 (stereo not shown)	5.95%
COc1ccc(-c2nc3c(c4nnc(SC(C)C(=O)Nc5ccc(C)cc5)n24)COC(C)(C)C3)cc1 (stereo not shown)	20.7%
Cc1ccc(C)c(OCCSc2nnc(C)c(=O)[nH]2)c1	44.7%
CC1CCCCN1c1nc(-c2ccncc2)nc2ccccc12 (stereo not shown)	-12.8%
CC(=O)N1CCc2cc(S(=O)(=O)NCCC(=O)NCCc3ccccc3)ccc21	17.2%
Cc1cccc(NC(=O)c2ccc3nccnc3c2)c1C	18%
COC(=O)c1cccc(OCC(O)Cn2cnc3cc(C)c(C)cc32)c1 (stereo not shown)	-9.48%
COc1cc(C(=O)OCC(=O)c2cc(C)n(C)c2C)cc(OC)c1OC	-1.54%
COc1cc(C(F)(F)F)c(C(=O)NCc2cccc(Cl)c2)cn1	7.88%

Compound	hERG current change (%, negative = inhibition) at 10uM
CCOC(=O)c1nnn(-c2nonc2-c2ccccc2)c1C	-25.2%
CC(C)C1CC(c2ccccc2)(C(CN)CO)CCO1.O=C(O)C(=O)O (stereo not shown)	23%
C/C(CC(=O)Nc1cc(C)ccn1)=N\NC(=O)c1ccccc1C	-1.76%
COc1ccc(NC(=O)C(CC(=O)O)Cc2ccc(Br)cc2)cc1 (stereo not shown)	11.9%
O=C(CC(SCc1ccco1)c1ccc(O)cc1)c1cccs1 (stereo not shown)	-15%
CC1CC(C)CN(CCCNC(=O)CN2C(=O)COc3ccc(S(=O)(=O)N4CCOCC4)cc32)C1 (stereo not shown)	15.8%
COc1ccc(C(=O)NNC(=O)OC(C)(C)C)cc1	17.2%
CCOn1c(=O)c(=O)n(OC)c2ccccc21	-6.73%
Cc1cc2c(=O)n(Cc3ccco3)c(SCC(=O)NCc3ccco3)nc2s1	-35.8%
CC(=O)N1CCC(=NNc2ccnc3cc(Cl)ccc23)CC1	-22.2%
CC1CCc2nn(CC(=O)NC3CCCC3)cc2C1 (stereo not shown)	1.3%
Nc1nnc(SCC(=O)NCC(=O)Nc2ccc(F)c(F)c2F)s1	11.8%
CCCC(C1=C(O)CC(C)(C)CC1=O)C1C(=O)CC(C)(C)CC1=O (stereo not shown)	10.2%
O=C(NC1CCC(=O)N(CCOc2ccccc2)CC1)OCc1ccccc1 (stereo not shown)	-30.2%
CCOc1ccc2nc(SCc3ccc(F)cc3)sc2c1	1.39%
CC(=O)c1c(C(C)=O)c(C)n(-c2ccc(C(=O)O)cc2)c1C	10.7%
CCN(CC)S(=O)(=O)c1cc([N+](=O)[O-])ccc1NNC(=O)Nc1ccccc1	1.68%
CCCCNC(=O)NCc1cnn(C)c1C	-1.98%
COc1ccc(C(CC(=O)NC(C)(C)C)n2cccc2)cc1 (stereo not shown)	14.7%
COCCCNc1nc(-c2ccncc2)nc2ccccc12	-15.5%

Compound	hERG current change (%, negative = inhibition) at 10uM
CCOc1ccc(N2CC(C(=O)Nc3ccc(S(=O)(=O)Nc4ncccn4)cc3)CC2=O)cc1 (stereo not shown)	2.55%
CSc1nc(O)c(C(c2ccccc2Cl)c2c(O)nc(SC)[nH]c2=O)c(=O)[nH]1	-1.16%
COc1ccc(-c2ncncc2-c2csc(C)n2)c(O)c1	-7.79%
Cc1ccccc1-c1noc(-c2cccs2)n1	6.88%
Cc1nc2ccc(S(=O)(=O)Nc3ccccc3C)cc2s1	-11.2%
O=C(CSCC(=O)c1ccccc1)Nc1ccccc1Cl	4.19%
Cc1cc(=O)[nH]c(SCC(=O)N2CCc3ccccc3C2)n1	-8.82%
Cl.O=C(C1CCN(S(=O)(=O)c2cccs2)CC1)N1CCN(Cc2ccccc2)CC1	3.79%
CC(C)Oc1ccc(S(=O)(=O)N2CCOCC2)cc1NC(=O)C1COc2ccccc2O1 (stereo not shown)	-27.7%
Cc1ccc(NC2CCCN(C(=O)c3ccnc(Cl)c3)C2)cc1C (stereo not shown)	-4.39%
Cc1cccc2cc(/C=N/NC(=O)[C@H]3C[C@@H]3c3ccccc3)c(Cl)nc12	13.8%
COc1ccc(CCNC(=O)Cc2ccc(OC)c(OC)c2)cc1OC	-4.93%
Cc1cccc(N2CCN(C(=O)c3ccc4c(c3)NC(=O)C(CSCc3ccc(F)cc3)N4)CC2C)c1 (stereo not shown)	-3.32%
CCOc1ccccc1NC(=O)C(NCC1CCCCC1)c1ccccc1 (stereo not shown)	16.9%
CC(=O)c1ccc(NC(=O)CN2CCN(c3ncccn3)CC2)cc1.O=C(O)C(=O)O	-27.8%
CN(Cc1ccccc1)C(=O)COC(=O)Cn1cnc2ccccc21	25.5%
O=C(NCCS(=O)(=O)N1CCN(c2ccccc2F)CC1)C1CC(=O)N(c2ccc(F)cc2)C1 (stereo not shown)	10.6%
COc1cccc(-c2nc(CS(=O)(=O)CC(=O)NCCCN3CCOCC3)c(C)o2)c1	7.17%
